According to the supplement of paper PMC10322689:
Several values for one entry are separate records, joined by “and”; a condition that tells them apart may be missing. Equal entries are not always repeated. The list shows a part of the results. Single values are uncertain, as repeats are few or missing.

These molecules were tested on mouse mesenchymal chondrosarcoma cells (HEY1-NCOA2) (assay: XTT absorbance relative to DMSO control (cell viability) (fraction of DMSO control); higher = more viable cells / less growth inhibition).

SMILES | XTT absorbance
C/C=C(/C)C(=O)O[C@H]1C(C)=C2[C@H]([C@@H]1OC(=O)CCCCCCC)[C@@](C)(OC(C)=O)C[C@H](OC(=O)CCC)[C@@]1(O)[C@H]2OC(=O)[C@@]1(C)O [Thapsigargin] | 0.279
C[C@H](CCC(=O)O)C[C@H](C)C[C@H](C)C(=O)/C=C(\O)[C@H](C)C[C@H](C)C/C=C/[C@@H](C)[C@@H](O)[C@@H](C)[C@@H](O)C[C@@H]1CC[C@@](C)([C@H]2CC[C@@](C)([C@@H](C)O)O2)O1 [Ionomycin] | 0.856
CC(=O)N[C@H]1[C@@H](O[C@@H]2O[C@H](CC(O)[C@H]3O[C@@H](n4ccc(=O)[nH]c4=O)[C@H](O)[C@@H]3O)[C@H](O)[C@H](O)[C@H]2NC(=O)/C=C/CC(C)C)O[C@H](CO)[C@@H](N)[C@@H]1O (stereo partly drawn) [Tunicamycin] | 0.322
C[C@@]12C(=O)OC(=O)[C@]1(C)[C@H]1CC[C@@H]2O1 [Cantharidin] | 0.832
O=C1C2CCN(CC2)C1(CO)CO | 0.985
COC(=O)C1(OC)CC2OC1(C)n1c3ccccc3c3c4c(c5c6ccccc6n2c5c31)C(=O)N(C)C4 (stereo not drawn) | 0.95 and 0.962
CC[C@@]1(O)C(=O)OCc2c1cc1n(c2=O)Cc2cc3ccccc3nc2-1 [Camptothecin] | 0.435
CC(C)[C@@H]1NC(=O)[C@H](C)OC(=O)[C@@H](C(C)C)NC(=O)[C@@H](C(C)C)OC(=O)[C@H](C(C)C)NC(=O)[C@H](C)OC(=O)[C@@H](C(C)C)NC(=O)[C@@H](C(C)C)OC(=O)[C@H](C(C)C)NC(=O)[C@H](C)OC(=O)[C@@H](C(C)C)NC(=O)[C@@H](C(C)C)OC1=O [Valinomycin] | 0.815
